# ± gives the standard deviation of the averaged measurements. Laboratory Escherichia coli strains with one amino-acid change in an essential protein, pooled on minimal glucose agar with carbenicillin or gentamicin at twice the control MIC (plus kanamycin and chloramphenicol for the plasmids), 48 h. Fold change of barcode share against drug-free plates; higher = less susceptible. Active = above 20 in both replicates (the paper's putatively resistant). '<' = one read or none on drug, '>' = one read or none on a drug-free plate. Shares are relative, so most strains fall below 1 when a few take over. Listed are strains with at least 15 reads on both drug-free plates, and hits; most hits rest on fewer reference reads. Replicate rank correlation about 0.5. Edits are read from barcodes.
# B1: yrfF; numbered along this chain (parent)
# chain: MSTIVIFLAALLACSLLAGWLIKVRSRRRQLPWTNAFADAQTRKLTPEERSAVENYLESLTQVLQVPGPTGASAAPISLALNAESNNVMMLTHAITRYGISTDDPNKWRYYLDSVEVHLPPFWEQYINDENTVELIHTDSLPLVISLNGHTLQEYMQETRSYALQPVPSTQASIRGEESEQIELLNIRKETHEEYALSRPRGLREALLIVASFLMFFFCLITPDVFVPWLAGGALLLLGAGLWGLFAPPAKSSLREIHCLRGTPRRWGLFGENDQEQINNISLGIIDLVYPAHWQPYIAQDLGQQTDIDIYLDRHVVRQGRYLSLHDEVKNFPLQHWLRSTIIAAGSLLVLFMLLFWIPLDMPLKFTLSWMKGAQTIEATSVKQLADAGVRVGDTLRISGTGMCNIRTSGTWSAKTNSPFLPFDCSQIIWNDARSLPLPESELVNKATALTEAVNRQLHPKPEDESRVSASLRSAIQKSGMVLLDDFGDIVLKTADLCSAKDDCVRLKNALVNLGNSKDWDALVKRANAGKLDGVNVLLRPVSAESLDNLVATSTAPFITHETARAAQSLNSPAPGGFLIVSDEGSDFVDQPWPSASLYDYPPQEQWNAFQKLAQMLMHTPFNAEGIVTKIFTDANGTQHIGLHPIPDRSGLWRYLSTTLLLLTMLGSAIYNGVQAWRRYQRHRTRMMEIQAYYESCLNPQLITPSESLIE
# B2: thrA; numbered along this chain (parent)
# chain: MRVLKFGGTSVANAERFLRVADILESNARQGQVATVLSAPAKITNHLVAMIEKTISGQDALPNISDAERIFAELLTGLAAAQPGFPLAQLKTFVDQEFAQIKHVLHGISLLGQCPDSINAALICRGEKMSIAIMAGVLEARGHNVTVIDPVEKLLAVGHYLESTVDIAESTRRIAASRIPADHMVLMAGFTAGNEKGELVVLGRNGSDYSAAVLAACLRADCCEIWTDVDGVYTCDPRQVPDARLLKSMSYQEAMELSYFGAKVLHPRTITPIAQFQIPCLIKNTGNPQAPGTLIGASRDEDELPVKGISNLNNMAMFSVSGPGMKGMVGMAARVFAAMSRARISVVLITQSSSEYSISFCVPQSDCVRAERAMQEEFYLELKEGLLEPLAVTERLAIISVVGDGMRTLRGISAKFFAALARANINIVAIAQGSSERSISVVVNNDDATTGVRVTHQMLFNTDQVIEVFVIGVGGVGGALLEQLKRQQSWLKNKHIDLRVCGVANSKALLTNVHGLNLENWQEELAQAKEPFNLGRLIRLVKEYHLLNPVIVDCTSSQAVADQYADFLREGFHVVTPNKKANTSSMDYYHQLRYAAEKSRRKFLYDTNVGAGLPVIENLQNLLNAGDELMKFSGILSGSLSYIFGKLDEGMSFSEATTLAREMGYTEPDPRDDLSGMDVARKLLILARETGRELELADIEIEPVLPAEFNAEGDVAAFMANLSQLDDLFAARVAKARDEGKVLRYVGNIDEDGVCRVKIAEVDGNDPLFKVKNGENALAFYSHYYQPLPLVLRGYGAGNDVTAAGVFADLLRTLSWKLGV
# Variants of: B1
# Experiment: barcode share on antibiotic plates over drug-free plates; higher = less susceptible
# Details: with Escherichia coli (laboratory strain); antibiotic: carbenicillin; 2× MIC (3.1 µg/mL)
# Procedure: (§1)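 A pool of E. coli strains, each edited to carry one amino-acid change in an essential protein, was grown for 48 h on minimal glucose agar with or without antibiotic; strain barcodes were sequenced; mean of two replicates.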
row,Variant,fold change of barcode share
1,V53D,0.249 ± 0.0068
2,V53P,0.29 ± 0.11
3,V53A,0.345 ± 0.1
4,V53Q,1.39 ± 0.26
5,V117W,0.676 ± 0.026
6,V117Q,1.01 ± 0.15
7,V117D,0.25 ± 0.087
8,V117P,2.17 ± 0.34
9,V117A,0.269 ± 0.14
10,W108A,0.478 ± 0.01
11,W108P,0.487 ± 0.059
12,W108D,0.376 ± 0.14
13,W108Q,0.21 ± 0.023
14,V88D,0.992 ± 0.052
15,V88W,1.07 ± 0.092
16,V88A,0.295 ± 0.035
17,V88P,0.665 ± 0.14
18,V88Q,0.437 ± 0.045
19,L57P,0.36 ± 0.1
20,L57Q,0.349 ± 0.087
21,L57A,0.592 ± 0.26
22,L57W,0.319 ± 0.1
23,L57D,0.31 ± 0.1

# Same assay, conditions: with Escherichia coli (laboratory strain); antibiotic: gentamicin; 2× MIC (MIC 0.45 µg/mL)
row,Variant,fold change of barcode share
1,V53D,0.018 ± 0.006
2,V53P,0.0162 ± 0.0056
3,V53A,< 0.00946
4,V53Q,< 0.0132
5,V117W,0.097 ± 0.12
6,V117D,9.37 ± 13
7,V117A,0.0054 ± 0.0018
8,W108A,0.00513 ± 0.00047
9,W108P,0.0125 ± 0.0096
10,W108D,0.00505 ± 0.00089
11,W108Q,0.25 ± 0.35
12,V88D,3.83 ± 4.9
13,V88W,0.335 ± 0.4
14,V88A,0.0633 ± 0.04
15,V88P,0.0024 ± 0.0015
16,V88Q,0.0302 ± 0.02
17,L57P,0.182 ± 0.25
18,L57Q,0.152 ± 0.21
19,L57A,< 0.0053
20,L57W,< 0.00632
21,L57D,< 0.0042

# Variants of: B2
# Experiment: as above
# Details: with Escherichia coli (laboratory strain); antibiotic: carbenicillin; 2× MIC (3.1 µg/mL)
# Procedure: as §1
row,Variant,fold change of barcode share
1,I349D,2.11 ± 1.5
2,I349Q,1.28 ± 0.37
3,I349W,1.57 ± 0.64
4,I349P,1.1 ± 0.15
5,I349A,1.81 ± 0.39
6,I399P,0.953 ± 0.25

# Same assay, conditions: with Escherichia coli (laboratory strain); antibiotic: gentamicin; 2× MIC (MIC 0.45 µg/mL)
row,Variant,fold change of barcode share
1,I349D,0.0142 ± 0.0092
2,I349Q,0.00691 ± 0.0011
3,I349W,0.00799 ± 0.0012
4,I349P,0.00494 ± 0.0014
5,I349A,0.00694 ± 0.0042
6,I399P,0.0159 ± 0.018

# Reference: the supplement of paper PMC11876631
